Results published in PMC9911399, “Two distinct binding modes provide the RNA-binding protein RbFox with extraordinary sequence specificity”.
Substitutions are numbered along the chain they refer to; changes in the protein carry UniProt numbers. This is one part of the list.

T1: RBFOX1 RRM (Homo sapiens, UniProt Q9NWB1 109-208)
T1 sequence: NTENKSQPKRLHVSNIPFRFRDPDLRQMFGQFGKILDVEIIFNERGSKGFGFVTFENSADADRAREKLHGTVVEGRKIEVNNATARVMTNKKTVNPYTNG

B1: GCGUACU (DNA:RNA)
RNA: GGGAGACCGGAAUUCAGAUUGUCCGCGUACUUUAAAUCCCGUCGUAGCCACCA
DNA 1: CAATCTGAATTCCGGTCTCCC
DNA 2: TGGTGGCTACGACGGGATT
B2: UGUGCAU (DNA:RNA)
RNA: B1 RNA with G25U, C26G, G27U, U28G, A29C, C30A
DNA 1: CAATCTGAATTCCGGTCTCCC
DNA 2: TGGTGGCTACGACGGGATT
B3: UGGGGGA (DNA:RNA)
RNA: B1 RNA with G25U, C26G, U28G, A29G, C30G, U31A
DNA 1: CAATCTGAATTCCGGTCTCCC
DNA 2: TGGTGGCTACGACGGGATT
B4: UUCAACC (DNA:RNA)
RNA: B1 RNA with G25U, C26U, G27C, U28A, U31C
DNA 1: CAATCTGAATTCCGGTCTCCC
DNA 2: TGGTGGCTACGACGGGATT
B5: GGGUGUG (DNA:RNA)
RNA: B1 RNA with C26G, A29G, C30U, U31G
DNA 1: CAATCTGAATTCCGGTCTCCC
DNA 2: TGGTGGCTACGACGGGATT
B6: UUCAAAC (DNA:RNA)
RNA: B1 RNA with G25U, C26U, G27C, U28A, C30A, U31C
DNA 1: CAATCTGAATTCCGGTCTCCC
DNA 2: TGGTGGCTACGACGGGATT
B7: ACGGAGG (DNA:RNA)
RNA: B1 RNA with G25A, U28G, C30G, U31G
DNA 1: CAATCTGAATTCCGGTCTCCC
DNA 2: TGGTGGCTACGACGGGATT
B8: GCAACCU (DNA:RNA)
RNA: B1 RNA with G27A, U28A, A29C
DNA 1: CAATCTGAATTCCGGTCTCCC
DNA 2: TGGTGGCTACGACGGGATT
B9: UGAUGUU (DNA:RNA)
RNA: B1 RNA with G25U, C26G, G27A, A29G, C30U
DNA 1: CAATCTGAATTCCGGTCTCCC
DNA 2: TGGTGGCTACGACGGGATT
B10: GAAAGAG (DNA:RNA)
RNA: B1 RNA with C26A, G27A, U28A, A29G, C30A, U31G
DNA 1: CAATCTGAATTCCGGTCTCCC
DNA 2: TGGTGGCTACGACGGGATT
B11: GAAUGCG (DNA:RNA)
RNA: B1 RNA with C26A, G27A, A29G, U31G
DNA 1: CAATCTGAATTCCGGTCTCCC
DNA 2: TGGTGGCTACGACGGGATT
B12: UAAGUAG (DNA:RNA)
RNA: GGGAGACCGGAAUUCAGAUUGUCCUAAGUAGUUAAAUCCCGUCGUAGCCACCA
DNA 1: CAATCTGAATTCCGGTCTCCC
DNA 2: TGGTGGCTACGACGGGATT
B13: CCUUGGU (DNA:RNA)
RNA: B1 RNA with G25C, G27U, A29G, C30G
DNA 1: CAATCTGAATTCCGGTCTCCC
DNA 2: TGGTGGCTACGACGGGATT
B14: CACAAUC (DNA:RNA)
RNA: B1 RNA with G25C, C26A, G27C, U28A, C30U, U31C
DNA 1: CAATCTGAATTCCGGTCTCCC
DNA 2: TGGTGGCTACGACGGGATT
B15: AGGAACG (DNA:RNA)
RNA: B1 RNA with G25A, C26G, U28A, U31G
DNA 1: CAATCTGAATTCCGGTCTCCC
DNA 2: TGGTGGCTACGACGGGATT
B16: CUCAUGC (DNA:RNA)
RNA: B12 RNA with U25C, A26U, A27C, G28A, A30G, G31C
DNA 1: CAATCTGAATTCCGGTCTCCC
DNA 2: TGGTGGCTACGACGGGATT
B17: AAAUGUG (DNA:RNA)
RNA: B12 RNA with U25A, G28U, U29G, A30U
DNA 1: CAATCTGAATTCCGGTCTCCC
DNA 2: TGGTGGCTACGACGGGATT
B18: UCUAGAA (DNA:RNA)
RNA: B12 RNA with A26C, A27U, G28A, U29G, G31A
DNA 1: CAATCTGAATTCCGGTCTCCC
DNA 2: TGGTGGCTACGACGGGATT
B19: GCCGCGC (DNA:RNA)
RNA: B1 RNA with G27C, U28G, A29C, C30G, U31C
DNA 1: CAATCTGAATTCCGGTCTCCC
DNA 2: TGGTGGCTACGACGGGATT
B20: AACGAAA (DNA:RNA)
RNA: B12 RNA with U25A, A27C, U29A, G31A
DNA 1: CAATCTGAATTCCGGTCTCCC
DNA 2: TGGTGGCTACGACGGGATT
B21: CUGGAUA (DNA:RNA)
RNA: B1 RNA with G25C, C26U, U28G, C30U, U31A
DNA 1: CAATCTGAATTCCGGTCTCCC
DNA 2: TGGTGGCTACGACGGGATT
B22: AACAACC (DNA:RNA)
RNA: B1 RNA with G25A, C26A, G27C, U28A, U31C
DNA 1: CAATCTGAATTCCGGTCTCCC
DNA 2: TGGTGGCTACGACGGGATT
B23: CACUGCA (DNA:RNA)
RNA: B1 RNA with G25C, C26A, G27C, A29G, U31A
DNA 1: CAATCTGAATTCCGGTCTCCC
DNA 2: TGGTGGCTACGACGGGATT
B24: GACCCGG (DNA:RNA)
RNA: B12 RNA with U25G, A27C, G28C, U29C, A30G
DNA 1: CAATCTGAATTCCGGTCTCCC
DNA 2: TGGTGGCTACGACGGGATT
B25: UUUAUAG (DNA:RNA)
RNA: B12 RNA with A26U, A27U, G28A
DNA 1: CAATCTGAATTCCGGTCTCCC
DNA 2: TGGTGGCTACGACGGGATT
B26: AAUGUGG (DNA:RNA)
RNA: B12 RNA with U25A, A27U, A30G
DNA 1: CAATCTGAATTCCGGTCTCCC
DNA 2: TGGTGGCTACGACGGGATT
B27: AGAUAAA (DNA:RNA)
RNA: B1 RNA with G25A, C26G, G27A, C30A, U31A
DNA 1: CAATCTGAATTCCGGTCTCCC
DNA 2: TGGTGGCTACGACGGGATT
B28: CGGUUCU (DNA:RNA)
RNA: B1 RNA with G25C, C26G, A29U
DNA 1: CAATCTGAATTCCGGTCTCCC
DNA 2: TGGTGGCTACGACGGGATT
B29: AUGCUUA (DNA:RNA)
RNA: B1 RNA with G25A, C26U, U28C, A29U, C30U, U31A
DNA 1: CAATCTGAATTCCGGTCTCCC
DNA 2: TGGTGGCTACGACGGGATT
B30: AUUUGUC (DNA:RNA)
RNA: B1 RNA with G25A, C26U, G27U, A29G, C30U, U31C
DNA 1: CAATCTGAATTCCGGTCTCCC
DNA 2: TGGTGGCTACGACGGGATT
B31: GAUGGUA (DNA:RNA)
RNA: B12 RNA with U25G, A27U, U29G, A30U, G31A
DNA 1: CAATCTGAATTCCGGTCTCCC
DNA 2: TGGTGGCTACGACGGGATT

Target: T1, RBFOX1 RRM
Assay: EMSA; HiTS-Eq, 1 nM pool, 10 min; buffer printed only for the single-RNA assays: 10 mM Tris pH 7.5, 150 mM NaCl, 3.4 mM EDTA, 0.001% NP-40, 30 C
Details: tags: His6 N-terminal (pET28a); label: 5' 32P
Procedure, shortened: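 Purified wild-type or mutant RbFox RRM at increasing concentrations was equilibrated with 1 nM of 5′-radiolabelled RNA carrying 7 randomized nucleotides for 10 min in 50 µL. Unbound RNA was separated by 8% native PAGE and sequenced. Relative association constants came from read-count changes of each RNA species compared with the control reaction, normalised to the cognate motif.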

Binder | binding signal
B1 | 0.00794 KA relative to UGCAUGU
B2 | 0.0291 KA relative to UGCAUGU
B3 | 0.0155 KA relative to UGCAUGU
B4 | 0.00041 KA relative to UGCAUGU
B5 | 0.0275 KA relative to UGCAUGU
B6 | 0.00257 KA relative to UGCAUGU
B7 | 0.0139 KA relative to UGCAUGU
B8 | 0.00725 KA relative to UGCAUGU
B9 | 0.0252 KA relative to UGCAUGU
B10 | 0.0129 KA relative to UGCAUGU
B11 | 0.0283 KA relative to UGCAUGU
B12 | 0.0136 KA relative to UGCAUGU
B13 | 0.0153 KA relative to UGCAUGU
B14 | 0.000755 KA relative to UGCAUGU
B15 | 0.0234 KA relative to UGCAUGU
B16 | 0.0103 KA relative to UGCAUGU

Binder | binding signal
B17 | 0.01 KA relative to UGCAUGU
B18 | 0.00428 KA relative to UGCAUGU
B19 | 0.0197 KA relative to UGCAUGU
B20 | 0.00329 KA relative to UGCAUGU
B21 | 0.0159 KA relative to UGCAUGU
B22 | 0.000774 KA relative to UGCAUGU
B23 | 0.0115 KA relative to UGCAUGU
B24 | 0.0136 KA relative to UGCAUGU
B25 | 0.0083 KA relative to UGCAUGU
B26 | 0.0107 KA relative to UGCAUGU
B27 | 0.00192 KA relative to UGCAUGU
B28 | 0.014 KA relative to UGCAUGU
B29 | 0.00763 KA relative to UGCAUGU
B30 | 0.0101 KA relative to UGCAUGU
B31 | 0.0226 KA relative to UGCAUGU
